Assay results reported in the supplement of paper PMC11876631.
± gives the standard deviation of the averaged measurements. Laboratory Escherichia coli strains with one amino-acid change in an essential protein, pooled on minimal glucose agar with carbenicillin or gentamicin at twice the control MIC (plus kanamycin and chloramphenicol for the plasmids), 48 h. Fold change of barcode share against drug-free plates; higher = less susceptible. Active = above 20 in both replicates (the paper's putatively resistant). '<' = one read or none on drug, '>' = one read or none on a drug-free plate. Shares are relative, so most strains fall below 1 when a few take over. Listed are strains with at least 15 reads on both drug-free plates, and hits; most hits rest on fewer reference reads. Replicate rank correlation about 0.5. Edits are read from barcodes.

B1: ffh V186D (protein)
chain: MFDNLTDRLSRTLRNISGRGRLTEDNVKDTLREVRMALLEADVALPVVREFINRVKEKAVGHEVNKSLTPGQEFVKIVRNELVAAMGEENQTLNLAAQPPAVVLMAGLQGAGKTTSVGKLGKFLREKHKKKVLVVSADVYRPAAIKQLETLAEQVGVDFFPSDVGQKPVDIVNAALKEAKLKFYDDLLVDTAGRLHVDEAMMDEIKQVHASINPVETLFVVDAMTGQDAANTAKAFNEALPLTGVVLTKVDGDARGGAALSIRHITGKPIKFLGVGEKTEALEPFHPDRIASRILGMGDVLSLIEDIESKVDRAQAEKLASKLKKGDGFDLNDFLEQLRQMKNMGGMASLMGKLPGMGQIPDNVKSQMDDKVLVRMEAIINSMTMKERAKPEIIKGSRKRRIAAGCGMQVQDVNRLLKQFDDMQRMMKKMKKGGMAKMMRSMKGMMPPGFPGR
B2: ffh V78A (protein)
chain: MFDNLTDRLSRTLRNISGRGRLTEDNVKDTLREVRMALLEADVALPVVREFINRVKEKAVGHEVNKSLTPGQEFVKIARNELVAAMGEENQTLNLAAQPPAVVLMAGLQGAGKTTSVGKLGKFLREKHKKKVLVVSADVYRPAAIKQLETLAEQVGVDFFPSDVGQKPVDIVNAALKEAKLKFYDVLLVDTAGRLHVDEAMMDEIKQVHASINPVETLFVVDAMTGQDAANTAKAFNEALPLTGVVLTKVDGDARGGAALSIRHITGKPIKFLGVGEKTEALEPFHPDRIASRILGMGDVLSLIEDIESKVDRAQAEKLASKLKKGDGFDLNDFLEQLRQMKNMGGMASLMGKLPGMGQIPDNVKSQMDDKVLVRMEAIINSMTMKERAKPEIIKGSRKRRIAAGCGMQVQDVNRLLKQFDDMQRMMKKMKKGGMAKMMRSMKGMMPPGFPGR
B3: ffh V78W (protein)
chain: MFDNLTDRLSRTLRNISGRGRLTEDNVKDTLREVRMALLEADVALPVVREFINRVKEKAVGHEVNKSLTPGQEFVKIWRNELVAAMGEENQTLNLAAQPPAVVLMAGLQGAGKTTSVGKLGKFLREKHKKKVLVVSADVYRPAAIKQLETLAEQVGVDFFPSDVGQKPVDIVNAALKEAKLKFYDVLLVDTAGRLHVDEAMMDEIKQVHASINPVETLFVVDAMTGQDAANTAKAFNEALPLTGVVLTKVDGDARGGAALSIRHITGKPIKFLGVGEKTEALEPFHPDRIASRILGMGDVLSLIEDIESKVDRAQAEKLASKLKKGDGFDLNDFLEQLRQMKNMGGMASLMGKLPGMGQIPDNVKSQMDDKVLVRMEAIINSMTMKERAKPEIIKGSRKRRIAAGCGMQVQDVNRLLKQFDDMQRMMKKMKKGGMAKMMRSMKGMMPPGFPGR
B4: ffh V135A (protein)
chain: MFDNLTDRLSRTLRNISGRGRLTEDNVKDTLREVRMALLEADVALPVVREFINRVKEKAVGHEVNKSLTPGQEFVKIVRNELVAAMGEENQTLNLAAQPPAVVLMAGLQGAGKTTSVGKLGKFLREKHKKKVLVASADVYRPAAIKQLETLAEQVGVDFFPSDVGQKPVDIVNAALKEAKLKFYDVLLVDTAGRLHVDEAMMDEIKQVHASINPVETLFVVDAMTGQDAANTAKAFNEALPLTGVVLTKVDGDARGGAALSIRHITGKPIKFLGVGEKTEALEPFHPDRIASRILGMGDVLSLIEDIESKVDRAQAEKLASKLKKGDGFDLNDFLEQLRQMKNMGGMASLMGKLPGMGQIPDNVKSQMDDKVLVRMEAIINSMTMKERAKPEIIKGSRKRRIAAGCGMQVQDVNRLLKQFDDMQRMMKKMKKGGMAKMMRSMKGMMPPGFPGR
B5: accA I200A (protein)
chain: MSLNFLDFEQPIAELEAKIDSLTAVSRQDEKLDINIDEEVHRLREKSVELTRKIFADLGAWQIAQLARHPQRPYTLDYVRLAFDEFDELAGDRAYADDKAIVGGIARLDGRPVMIIGHQKGRETKEKIRRNFGMPAPEGYRKALRLMQMAERFKMPIITFIDTPGAYPGVGAEERGQSEAIARNLREMSRLGVPVVCTVAGEGGSGGALAIGVGDKVNMLQYSTYSVISPEGCASILWKSADKAPLAAEAMGIIAPRLKELKLIDSIIPEPLGGAHRNPEAMAASLKAQLLADLADLDVLSTEDLKNRRYQRLMSYGYA
B6: accA I200Q (protein)
chain: MSLNFLDFEQPIAELEAKIDSLTAVSRQDEKLDINIDEEVHRLREKSVELTRKIFADLGAWQIAQLARHPQRPYTLDYVRLAFDEFDELAGDRAYADDKAIVGGIARLDGRPVMIIGHQKGRETKEKIRRNFGMPAPEGYRKALRLMQMAERFKMPIITFIDTPGAYPGVGAEERGQSEAIARNLREMSRLGVPVVCTVQGEGGSGGALAIGVGDKVNMLQYSTYSVISPEGCASILWKSADKAPLAAEAMGIIAPRLKELKLIDSIIPEPLGGAHRNPEAMAASLKAQLLADLADLDVLSTEDLKNRRYQRLMSYGYA
B7: folE M99A (protein)
chain: MPSLSKEAALVHEALVARGLETPLRPPVHEMDNETRKSLIAGHMTEIMQLLNLDLADDSLMETPHRIAKMYVDEIFSGLDYANFPKITLIENKMKVDEAVTVRDITLTSTCEHHFVTIDGKATVAYIPKDSVIGLSKINRIVQFFAQRPQVQERLTQQILIALQTLLGTNNVAVSIDAVHYCVKARGIRDATSATTTTSLGGLFKSSQNTRHEFLRAVRHHN
B8: folE M99Q (protein)
chain: MPSLSKEAALVHEALVARGLETPLRPPVHEMDNETRKSLIAGHMTEIMQLLNLDLADDSLMETPHRIAKMYVDEIFSGLDYANFPKITLIENKMKVDEQVTVRDITLTSTCEHHFVTIDGKATVAYIPKDSVIGLSKINRIVQFFAQRPQVQERLTQQILIALQTLLGTNNVAVSIDAVHYCVKARGIRDATSATTTTSLGGLFKSSQNTRHEFLRAVRHHN
B9: folE I105A (protein)
chain: MPSLSKEAALVHEALVARGLETPLRPPVHEMDNETRKSLIAGHMTEIMQLLNLDLADDSLMETPHRIAKMYVDEIFSGLDYANFPKITLIENKMKVDEMVTVRDATLTSTCEHHFVTIDGKATVAYIPKDSVIGLSKINRIVQFFAQRPQVQERLTQQILIALQTLLGTNNVAVSIDAVHYCVKARGIRDATSATTTTSLGGLFKSSQNTRHEFLRAVRHHN
B10: folE I105Q (protein)
chain: MPSLSKEAALVHEALVARGLETPLRPPVHEMDNETRKSLIAGHMTEIMQLLNLDLADDSLMETPHRIAKMYVDEIFSGLDYANFPKITLIENKMKVDEMVTVRDQTLTSTCEHHFVTIDGKATVAYIPKDSVIGLSKINRIVQFFAQRPQVQERLTQQILIALQTLLGTNNVAVSIDAVHYCVKARGIRDATSATTTTSLGGLFKSSQNTRHEFLRAVRHHN
B11: folE I105D (protein)
chain: MPSLSKEAALVHEALVARGLETPLRPPVHEMDNETRKSLIAGHMTEIMQLLNLDLADDSLMETPHRIAKMYVDEIFSGLDYANFPKITLIENKMKVDEMVTVRDDTLTSTCEHHFVTIDGKATVAYIPKDSVIGLSKINRIVQFFAQRPQVQERLTQQILIALQTLLGTNNVAVSIDAVHYCVKARGIRDATSATTTTSLGGLFKSSQNTRHEFLRAVRHHN
B12: folE L107A (protein)
chain: MPSLSKEAALVHEALVARGLETPLRPPVHEMDNETRKSLIAGHMTEIMQLLNLDLADDSLMETPHRIAKMYVDEIFSGLDYANFPKITLIENKMKVDEMVTVRDITATSTCEHHFVTIDGKATVAYIPKDSVIGLSKINRIVQFFAQRPQVQERLTQQILIALQTLLGTNNVAVSIDAVHYCVKARGIRDATSATTTTSLGGLFKSSQNTRHEFLRAVRHHN
B13: folE L107W (protein)
chain: MPSLSKEAALVHEALVARGLETPLRPPVHEMDNETRKSLIAGHMTEIMQLLNLDLADDSLMETPHRIAKMYVDEIFSGLDYANFPKITLIENKMKVDEMVTVRDITWTSTCEHHFVTIDGKATVAYIPKDSVIGLSKINRIVQFFAQRPQVQERLTQQILIALQTLLGTNNVAVSIDAVHYCVKARGIRDATSATTTTSLGGLFKSSQNTRHEFLRAVRHHN
B14: folE L107Q (protein)
chain: MPSLSKEAALVHEALVARGLETPLRPPVHEMDNETRKSLIAGHMTEIMQLLNLDLADDSLMETPHRIAKMYVDEIFSGLDYANFPKITLIENKMKVDEMVTVRDITQTSTCEHHFVTIDGKATVAYIPKDSVIGLSKINRIVQFFAQRPQVQERLTQQILIALQTLLGTNNVAVSIDAVHYCVKARGIRDATSATTTTSLGGLFKSSQNTRHEFLRAVRHHN
B15: folE V172A (protein)
chain: MPSLSKEAALVHEALVARGLETPLRPPVHEMDNETRKSLIAGHMTEIMQLLNLDLADDSLMETPHRIAKMYVDEIFSGLDYANFPKITLIENKMKVDEMVTVRDITLTSTCEHHFVTIDGKATVAYIPKDSVIGLSKINRIVQFFAQRPQVQERLTQQILIALQTLLGTNNAAVSIDAVHYCVKARGIRDATSATTTTSLGGLFKSSQNTRHEFLRAVRHHN

Molecular target: Escherichia coli (laboratory strain)
Assay: barcode share on antibiotic plates over drug-free plates; higher = less susceptible
Conditions: antibiotic: carbenicillin; 2× MIC (3.1 µg/mL)
Procedure: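 A pool of E. coli strains, each edited to carry one amino-acid change in an essential protein, was grown for 48 h on minimal glucose agar with or without antibiotic; strain barcodes were sequenced; mean of two replicates.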

Protein | fold change of barcode share
B1 | 0.339 ± 0.16
B2 | 0.315 ± 0.018
B3 | 0.234 ± 0.17
B4 | 0.373 ± 0.22
B5 | 0.244 ± 0.0078
B6 | 0.276 ± 0.12
B7 | 0.332 ± 0.067
B8 | 0.178 ± 0.14
B9 | 0.25 ± 0.03
B10 | 0.324 ± 0.056
B11 | 0.471 ± 0.18
B12 | 0.357 ± 0.087
B13 | 0.224 ± 0.03
B14 | 0.476 ± 0.1
B15 | 0.3717 ± 0.0025

Same assay, conditions: antibiotic: gentamicin; 2× MIC (MIC 0.45 µg/mL)

Protein | fold change of barcode share
B1 | < 0.00615
B2 | 0.0212 ± 0.014
B3 | < 0.00992
B4 | < 0.00656
B5 | < 0.0071
B6 | < 0.0138
B8 | < 0.014
B10 | 0.0201 ± 0.0027
B11 | < 0.0191
B12 | < 0.00554
B13 | 0.00839 ± 0.0051
B14 | < 0.0145
B15 | 0.00963 ± 0.0059
